What follows are compounds tested against Recombinant heterodimeric HCV NS3/NS4A protease (strain 1a) (Hepatitis C virus genotype 1a, UniProt P27958) (assay: HCV continuous assay (spectrophotometric HCV NS3/NS4A serine protease inhibition assay)). Details: Table 1; ranges of Ki* values in HCV continuous assay.
Type: biochemical, HCV (strain 1a)

`C#CCCC(NC(=O)[C@@H]1[C@@H]2[C@H](CN1C(=O)[C@@H](NC(=O)N[C@H](CN1CCCN(C)S1(=O)=O)C(C)(C)C)C(C)(C)C)C2(C)C)C(=O)C(=O)NCC=C` (some centres unmarked) [Compound 5168] and `C=CCNC(=O)C(=O)C(CC1CC1)NC(=O)[C@@H]1[C@@H]2[C@H](CN1C(=O)[C@@H](NC(=O)N[C@H](CN1CCCN(C)S1(=O)=O)C(C)(C)C)C(C)(C)C)C2(C)C` (some centres unmarked) [Compound 5127] cannot be ordered by Ki: no more than 0.05 µM for the first, no more than 0.05 µM for the second.

`CN1CCCN(C[C@@H](NC(=O)N[C@H](C(=O)N2C[C@H]3[C@@H]([C@H]2C(=O)NC(CC2CCC2)C(=O)C(N)=O)C3(C)C)C(C)(C)C)C(C)(C)C)S1(=O)=O` (some centres unmarked) [Compound 5131] and `C=CCNC(=O)C(=O)C(CC1CCC1)NC(=O)[C@@H]1[C@@H]2[C@H](CN1C(=O)[C@@H](NC(=O)N[C@H](CN1CCN(C)S1(=O)=O)C(C)(C)C)C(C)(C)C)C2(C)C` (some centres unmarked) [Compound 5159] cannot be ordered by Ki: no more than 0.05 µM for the first, no more than 0.05 µM for the second.

`CCCCC(NC(=O)[C@@H]1[C@@H]2[C@H](CN1C(=O)[C@@H](NC(=O)N[C@H](CN1Cc3ccccc3S1(=O)=O)C(C)(C)C)C1CCCCC1)C2(C)C)C(=O)C(=O)NCC` (some centres unmarked) [Compound 5251] and `CCCCC(NC(=O)[C@@H]1[C@@H]2[C@H](CN1C(=O)[C@@H](NC(=O)N[C@H](CN1Cc3ccccc3S1(=O)=O)C(C)(C)C)C(C)(C)C)C2(C)C)C(=O)C(N)=O` (some centres unmarked) [Compound 5181] cannot be ordered by Ki: no more than 0.05 µM for the first, no more than 0.05 µM for the second.

`C#CCCC(NC(=O)[C@@H]1[C@@H]2[C@H](CN1C(=O)[C@@H](NC(=O)NC1(CN3Cc4sccc4S3(=O)=O)CCCCC1)C(C)(C)C)C2(C)C)C(=O)C(=O)NCC=C` (some centres unmarked) [Compound 5209] and `C=CCNC(=O)C(=O)C(CC1CCC1)NC(=O)[C@@H]1[C@@H]2[C@H](CN1C(=O)[C@@H](NC(=O)N[C@H](CN1Cc3ccccc3S1(=O)=O)C(C)(C)C)C(C)(C)C)C2(C)C` (some centres unmarked) [Compound 5174] cannot be ordered by Ki: no more than 0.05 µM for the first, no more than 0.05 µM for the second.

`C#CCC(NC(=O)[C@@H]1[C@@H]2[C@H](CN1C(=O)[C@@H](NC(=O)N[C@H](CN1CCCS1(=O)=O)C(C)(C)C)C(C)(C)C)C2(C)C)C(=O)C(=O)NCC=C` (some centres unmarked) [Compound 5125] and `C=CCNC(=O)C(=O)C(CCC)NC(=O)[C@@H]1[C@@H]2[C@H](CN1C(=O)[C@@H](NC(=O)N[C@H](CN1CCCNS1(=O)=O)C(C)(C)C)C(C)(C)C)C2(C)C` (some centres unmarked) [Compound 5216] cannot be ordered by Ki: no more than 0.05 µM for the first, greater than 0.05 µM for the second.

Same assay, conditions: Table 2; ranges of Ki* values in HCV continuous assay

`C=CCNC(=O)C(=O)C(CCC)NC(=O)[C@@H]1[C@@H]2[C@H](CN1C(=O)[C@@H](NC(=O)N[C@H](CN1C(=O)CC3(CCCC3)CC1=O)C(C)(C)C)C1CCCCC1)C2(C)C` (some centres unmarked) [Compound 5818] and `C=CCNC(=O)C(=O)C(CC1CC1)NC(=O)[C@@H]1[C@@H]2[C@H](CN1C(=O)[C@@H](NC(=O)N[C@H](CN1C(=O)CC3(CCCC3)CC1=O)C(C)(C)C)C(C)(C)C)C2(C)C` (some centres unmarked) [Compound 5796] cannot be ordered by Ki: no more than 0.05 µM for the first, no more than 0.05 µM for the second.

`C#CCCC(NC(=O)[C@@H]1[C@@H]2[C@H](CN1C(=O)[C@@H](NC(=O)N[C@H](CN1CCCCC1=O)C1CCCCC1)C(C)(C)C)C2(C)C)C(=O)C(=O)NCC=C` (some centres unmarked) [Compound 5740] and `C=CCNC(=O)C(=O)C(CCC)NC(=O)[C@@H]1[C@@H]2[C@H](CN1C(=O)[C@@H](NC(=O)N[C@H](CN1CCCCC1=O)C1CCCCC1)C(C)(C)C)C2(C)C` (some centres unmarked) [Compound 5731] cannot be ordered by Ki: no more than 0.05 µM for the first, no more than 0.05 µM for the second.

`CN1CCCN(C[C@@H](NC(=O)N[C@H](C(=O)N2C[C@H]3[C@@H]([C@H]2C(=O)NC(CC2CC2)C(=O)C(N)=O)C3(C)C)C(C)(C)C)C(C)(C)C)C1=O` (some centres unmarked) [Compound 5686] and `CC(C)(C)[C@H](NC(=O)N[C@H](CN1CCCOC1=O)C(C)(C)C)C(=O)N1C[C@H]2[C@@H]([C@H]1C(=O)NC(CC1CCC1)C(=O)C(N)=O)C2(C)C` (mixture of isomers) [Compound 5700] cannot be ordered by Ki: no more than 0.05 µM for the first, no more than 0.05 µM for the second.

`C=CCNC(=O)C(=O)C(CCCC)NC(=O)[C@@H]1[C@@H]2[C@H](CN1C(=O)[C@@H](NC(=O)N[C@H](CN1C(=O)CCCC1=O)C(C)(C)C)C(C)(C)C)C2(C)C` (some centres unmarked) [Compound 5673] and `C=CCNC(=O)C(=O)C(CCCC)NC(=O)[C@@H]1[C@@H]2[C@H](CN1C(=O)[C@@H](NC(=O)N[C@H](CN1C(=O)CCC1=O)C(C)(C)C)C(C)(C)C)C2(C)C` (some centres unmarked) [Compound 5647] cannot be ordered by Ki: no more than 0.05 µM for the first, no more than 0.05 µM for the second.

`C=CCNC(=O)C(=O)C(CCC)NC(=O)[C@@H]1[C@@H]2[C@H](CN1C(=O)[C@@H](NC(=O)N[C@H](CN1CCCCC1=O)C(C)(C)C)C1Cc3ccccc3C1)C2(C)C` (some centres unmarked) [Compound 5724] and `C=CCNC(=O)C(=O)C(CCC(F)(F)F)NC(=O)[C@@H]1[C@@H]2[C@H](CN1C(=O)[C@@H](NC(=O)N[C@H](CN1CCCCC1=O)C(C)(C)C)C(C)(C)C)C2(C)C` (some centres unmarked) [Compound 5662] cannot be ordered by Ki: no more than 0.05 µM for the first, no more than 0.05 µM for the second.

`CC(C)(C)[C@@H](CN1C(=O)CCCC1=O)NC(=O)N[C@H](C(=O)N1C[C@H]2[C@@H]([C@H]1C(=O)NC(CC1CC1)C(=O)C(N)=O)C2(C)C)C1CCCCC1` (some centres unmarked) [Compound 5715] and `CC(C)(C)[C@H](NC(=O)N[C@H](CN1C(=O)CCCC1=O)C(C)(C)C)C(=O)N1C[C@H]2[C@@H]([C@H]1C(=O)NC(CC1CCC1)C(=O)C(N)=O)C2(C)C` (some centres unmarked) [Compound 5675] cannot be ordered by Ki: no more than 0.05 µM for the first, no more than 0.05 µM for the second.

`C=CCNC(=O)C(=O)C(CCCC)NC(=O)[C@@H]1[C@@H]2[C@H](CN1C(=O)[C@@H](NC(=O)N[C@H](CN1CCCCC1=O)C1CCCCC1)C(C)(C)C)C2(C)C` (some centres unmarked) [Compound 5730] and `C=CCNC(=O)C(=O)C(CC1CC1)NC(=O)[C@@H]1[C@@H]2[C@H](CN1C(=O)[C@@H](NC(=O)N[C@H](CN1C(=O)CCCC1=O)C(C)(C)C)C1(C)CCCCC1)C2(C)C` (some centres unmarked) [Compound 5800] cannot be ordered by Ki: no more than 0.05 µM for the first, no more than 0.05 µM for the second.

`C=CCNC(=O)C(=O)C(CC1CCC1)NC(=O)[C@@H]1[C@@H]2[C@H](CN1C(=O)[C@@H](NC(=O)N[C@H](CN1C(=O)Cc3ccccc3C1=O)C(C)(C)C)C(C)(C)C)C2(C)C` (some centres unmarked) [Compound 5738] and `C=CCNC(=O)C(=O)C(CC1CC1)NC(=O)[C@@H]1[C@@H]2[C@H](CN1C(=O)[C@@H](NC(=O)N[C@H](CN1C(=O)CCC1=O)C(C)(C)C)C(C)(C)C)C2(C)C` (some centres unmarked) [Compound 5636] cannot be ordered by Ki: greater than 0.05 µM for the first, no more than 0.05 µM for the second.

`C=CCNC(=O)C(=O)C(CCC)NC(=O)[C@@H]1[C@@H]2[C@H](CN1C(=O)[C@@H](NC(=O)N[C@H](CN1C(=O)CCC1=O)C(C)(C)C)C(C)(C)C)C2(C)C` (some centres unmarked) [Compound 5637] and `CCCCC(NC(=O)[C@@H]1[C@@H]2[C@H](CN1C(=O)[C@@H](NC(=O)N[C@H](CN1C(=O)CC(C)(C)CC1=O)C(C)(C)C)C(C)(C)C)C2(C)C)C(=O)C(=O)NCCC` (some centres unmarked) [Compound 5807] cannot be ordered by Ki: no more than 0.05 µM for the first, no more than 0.05 µM for the second.

`C=CCNC(=O)C(=O)C(CCC(F)(F)F)NC(=O)[C@@H]1[C@@H]2[C@H](CN1C(=O)[C@@H](NC(=O)N[C@H](CN1CCCN(C)C1=O)C(C)(C)C)C(C)(C)C)C2(C)C` (some centres unmarked) [Compound 5692] and `C#CCCC(NC(=O)[C@@H]1[C@@H]2[C@H](CN1C(=O)[C@@H](NC(=O)N[C@H](CN1C(=O)c3ccccc3C1=O)C(C)(C)C)C(C)(C)C)C2(C)C)C(=O)C(=O)NCC=C` (some centres unmarked) [Compound 5669] cannot be ordered by Ki: greater than 0.05 µM for the first, no more than 0.05 µM for the second.

`C=CCNC(=O)C(=O)C(CCCC)NC(=O)[C@@H]1[C@@H]2[C@H](CN1C(=O)[C@@H](NC(=O)NC1(CN3C(=O)c4ccccc4C3=O)CCCCC1)C(C)(C)C)C2(C)C` (some centres unmarked) [Compound 5677] and `CNC(=O)C(=O)C(CC1CC1)NC(=O)[C@@H]1[C@@H]2[C@H](CN1C(=O)[C@@H](NC(=O)N[C@H](CN1C(=O)c3ccncc3C1=O)C(C)(C)C)C(C)(C)C)C2(C)C` (some centres unmarked) [Compound 5657] cannot be ordered by Ki: greater than 0.05 µM for the first, no more than 0.05 µM for the second.

Same assay, conditions: Table 4; Ki* values

In order of rising Ki:
1. C=CCNC(=O)C(=O)C(CC1CC1)NC(=O)[C@@H]1[C@@H]2[C@H](CN1C(=O)[C@@H](NC(=O)N[C@H](CN1C(=O)CC3(CCCC3)CC1=O)C(C)(C)C)C(C)(C)C)C2(C)C (some centres unmarked) [Compound 5796]  0.0032 µM
2. C=CCNC(=O)C(=O)C(CCC)NC(=O)[C@@H]1[C@@H]2[C@H](CN1C(=O)[C@@H](NC(=O)N[C@H](CN1CCCCC1=O)C1CCCCC1)C(C)(C)C)C2(C)C (some centres unmarked) [Compound 5731]  0.015 µM
3. C=CCNC(=O)C(=O)C(CCC)NC(=O)[C@@H]1[C@@H]2[C@H](CN1C(=O)[C@@H](NC(=O)N[C@H](CN1CCCCC1=O)C(C)(C)C)C1Cc3ccccc3C1)C2(C)C (some centres unmarked) [Compound 5724]  0.019 µM

Source: patent US7619094B2, “Ketoamides with cyclic P4's as inhibitors of NS3 serine protease of hepatitis C virus” (Schering Corporation, priority 2004, dated 2009)
